# Laboratory results from the supplement of paper PMC12355420.
# Counter-ions that a name gives are not always drawn. The list shows a part of the results. Repeats are few or missing, and single values can be far off.
# Tested on: HeLa VPS33A KO + NLuc-VPS33A R498W
# Assay: relative mutant VPS33A R498W amount (NanoLuc luminescence) vs DMSO (fraction of DMSO); HeLa model of a glycosaminoglycan (GAG) storage disease; KI is knock-in and KO knock-out; SDC1 is syndecan 1; higher = higher mutant VPS33A level
# Conditions: 50 µM; 24 h
# 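Further: screen of an FDA-approved drug library, NanoLuc luminescence read after lysing the treated cells, taken as a measure of mutant VPS33A protein stability.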
row,Compound,relative mutant VPS33A R498W amount
1,N=C(N)N/N=C/c1c(Cl)cccc1Cl [Guanabenz Acetate],0.675
2,CCCC(CCC)C(=O)O [Valproic acid],1.11
3,CCn1cc(C(=O)O)c(=O)c2ccc(C)nc21 [Nalidixic acid],0.986
4,Oc1ccc(OC2CCCCO2)cc1 (stereo unspecified) [Deoxyarbutin],1.12
5,O=Cc1ccc(OC2OC(CO)C(O)C(O)C2O)cc1 (stereo unspecified) [Helicid],1.25
6,Cc1nccn1CC1CCc2c(c3ccccc3n2C)C1=O (stereo unspecified) [Ondansetron hydrochloride dihydrate],0.712
7,CN(C)C(=O)c1cc2cnc(Nc3ccc(N4CCNCC4)cn3)nc2n1C1CCCC1,1.51
8,Nc1nc(=O)c2nc(CNc3ccc(C(=O)N[C@@H](CCC(=O)O)C(=O)O)cc3)cnc2[nH]1 [Folic acid],1.09
9,O=c1oc2cc(O)ccc2s1 [Tioxolone],0.704
10,O=C(O)Cc1cc(I)c(Oc2ccc(O)c(I)c2)c(I)c1 [Tiratricol],0.965
11,COc1nc2ccc(Br)cc2cc1[C@@H](c1ccccc1)[C@@](O)(CCN(C)C)c1cccc2ccccc12 [Bedaquiline],0.5
12,Nc1c2c(nc3ccccc13)CCCC2 [Tacrine hydrochloride],1.21
13,C=CCc1cc(OC)c(O)c(C(=O)NCCO)c1 [Alibendol],1.4
14,CCOc1cc([C@@H](CS(C)(=O)=O)N2C(=O)c3cccc(NC(C)=O)c3C2=O)ccc1OC,1.57
15,CCC(C)n1ncn(-c2ccc(N3CCN(c4ccc(OCC5COC(Cn6cncn6)(c6ccc(Cl)cc6Cl)O5)cc4)CC3)cc2)c1=O (stereo unspecified) [Itraconazole],1.51
16,NC(=O)c1ncn([C@@H]2O[C@H](CO)[C@@H](O)[C@H]2O)c1O [Mizoribine],1.24

row,Compound,relative mutant VPS33A R498W amount
1,Cc1cc(O)c2c(c1)C(=O)c1cc(O)cc(O)c1C2=O [Emodin],0.705
2,COc1c2occc2cc2ccc(=O)oc12 [8-Methoxypsoralen],1
3,"CCCC(=O)Nc1ncnc2c1ncn2[C@@H]1O[C@@H]2COP(=O)(O)O[C@H]2[C@H]1OC(=O)CCC [Dibutyryl-cAMP, sodium salt]",1.23
4,O=S(=O)(O)CCS [Mesna],0.864
5,COc1cc2nc(N3CCN(C(=O)C4CCCO4)CC3)nc(N)c2cc1OC (stereo unspecified) [Terazosin HCl],1.95
6,OC1OC[C@H](O)[C@H](O)[C@H]1O (mixture of isomers) [L-Arabinose],1.36
7,Nc1nc2n[nH]nc2c(=O)[nH]1 [Azaguanine-8],9.19
8,C[C@]12CCC(=O)C=C1C=C[C@@H]1[C@@H]2CC[C@@]2(C)[C@H]1CC[C@@]21CCC(=O)O1 [Canrenone],0.682
9,C#C[C@]1(O)CC[C@H]2[C@@H]3CCC4=CC(=O)CC[C@@H]4[C@H]3C(=C)C[C@@]21CC [Etonogestrel],1.26
10,COc1ccc(CN(CCN(C)C)c2ccccn2)cc1 [Mepyramine maleate],1.01
11,NC(N)=Nc1nc(CSCC/C(N)=N/S(N)(=O)=O)cs1 [Famotidine],1.59
12,COc1ccc2cc(CCC(C)=O)ccc2c1 [Nabumetone],1.08
13,NS(=O)(=O)c1cc2c(cc1Cl)NCNS2(=O)=O [Hydrochlorothiazide],1.11
14,Nc1ccn([C@@H]2O[C@H](CO)[C@@H](O)[C@@H]2O)c(=O)n1 [Cytarabine],0.514
15,Cc1cc(C2CCCCC2)n(O)c(=O)c1 [Ciclopirox],2.07
